# These are yes or no findings as the source states them, for the method shown. For part of these data: Binding seen in cells or lysates may run through a third protein. Some entries that bind do so weakly or less than the wild type. For part of these data: Where a sequence is shown, tags or fusion partners need not be part of it.
# Target: Hsp90 (full-length HSP82 in the bait vector pGBDUC1) (S. cerevisiae) (UniProt P02829)
# Assay: two-hybrid; Hsp90 as bait (pGBDUC1), Chl1 constructs as prey (pGADC1), strain PJ69-4A; HIS3 reporter, serial dilutions spotted on medium lacking uracil, leucine and histidine, scored after 5 days at 30°C
row,Binder,binding
1,"Chl1 (full-length CHL1 in the prey vector pGADC1) (protein, UniProt P22516 1-861) MDKKEYSETFYHPYKPYDIQVQLMETVYRVLSEGKKIAILESPTGTGKTLSLICATMTWLRMNKADIFTRMETNIKTNEDDSENLSDDEPDWVIDTYRKSVLQEKVDLLNDYEKHLNEINTTSCKQLKTMCDLDKEHGRYKSVDPLRKKRKGARHLDVSLEEQDFIPRPYESDSENNDTSKSTRGGRISDKDYKLSELNSQIITLLDKIDGKVSRDPNNGDRFDVTNQNPVKIYYASRTYSQLGQFTSQLRLPSFPSSFRDKVPDEKVKYLPLASKKQLCINPKVMKWKTLEAINDACADLRHSKEGCIFYQNTNEWRHCPDTLALRDMIFSEIQDIEDLVPLGKSLGICPYYASREALPIAEVVTLPYQYLLSESTRSSLQINLENSIVIIDEAHNLIETINSIYSSQISLEDLKNCHKGIVTYFNKFKSRLNPGNRVNLLKLNSLLMTLIQFIVKNFKKIGQEIDPNDMFTGSNIDTLNIHKLLRYIKVSKIAYKIDTYNQALKEEESSKNENPIKETHKKSVSSQPLLFKVSQFLYCLTNLTSEGQFFFEKNYSIKYMLLEPSKPFESILNQAKCVVLAGGTMEPMSEFLSNLLPEVPSEDITTLSCNHVIPKENLQTYITNQPELEFTFEKRMSPSLVNNHLFQFFVDLSKAVPKKGGIVAFFPSYQYLAHVIQCWKQNDRFATLNNVRKIFYEAKDGDDILSGYSDSVAEGRGSLLLAIVGGKLSEGINFQDDLCRAVVMVGLPFPNIFSGELIVKRKHLAAKIMKSGGTEEEASRATKEFMENICMKAVNQSVGRAIRHANDYANIYLLDVRYNRPNFRKKLSRWVQDSINSEHTTHQVISSTRKFFSMRSLNSR",binds
2,"chl1-C648 (648 amino acids of Chl1; domains II, III and IV) (domain or fragment, UniProt P22516 214-861) SRDPNNGDRFDVTNQNPVKIYYASRTYSQLGQFTSQLRLPSFPSSFRDKVPDEKVKYLPLASKKQLCINPKVMKWKTLEAINDACADLRHSKEGCIFYQNTNEWRHCPDTLALRDMIFSEIQDIEDLVPLGKSLGICPYYASREALPIAEVVTLPYQYLLSESTRSSLQINLENSIVIIDEAHNLIETINSIYSSQISLEDLKNCHKGIVTYFNKFKSRLNPGNRVNLLKLNSLLMTLIQFIVKNFKKIGQEIDPNDMFTGSNIDTLNIHKLLRYIKVSKIAYKIDTYNQALKEEESSKNENPIKETHKKSVSSQPLLFKVSQFLYCLTNLTSEGQFFFEKNYSIKYMLLEPSKPFESILNQAKCVVLAGGTMEPMSEFLSNLLPEVPSEDITTLSCNHVIPKENLQTYITNQPELEFTFEKRMSPSLVNNHLFQFFVDLSKAVPKKGGIVAFFPSYQYLAHVIQCWKQNDRFATLNNVRKIFYEAKDGDDILSGYSDSVAEGRGSLLLAIVGGKLSEGINFQDDLCRAVVMVGLPFPNIFSGELIVKRKHLAAKIMKSGGTEEEASRATKEFMENICMKAVNQSVGRAIRHANDYANIYLLDVRYNRPNFRKKLSRWVQDSINSEHTTHQVISSTRKFFSMRSLNSR",binds
3,"chl1-C253 (domains III and IV of Chl1) (domain or fragment, UniProt P22516 609-861) SCNHVIPKENLQTYITNQPELEFTFEKRMSPSLVNNHLFQFFVDLSKAVPKKGGIVAFFPSYQYLAHVIQCWKQNDRFATLNNVRKIFYEAKDGDDILSGYSDSVAEGRGSLLLAIVGGKLSEGINFQDDLCRAVVMVGLPFPNIFSGELIVKRKHLAAKIMKSGGTEEEASRATKEFMENICMKAVNQSVGRAIRHANDYANIYLLDVRYNRPNFRKKLSRWVQDSINSEHTTHQVISSTRKFFSMRSLNSR",binds weakly
4,"chl1-N466 (N-terminal 466 amino acids of Chl1; domains I and II) (domain or fragment, UniProt P22516 1-466) MDKKEYSETFYHPYKPYDIQVQLMETVYRVLSEGKKIAILESPTGTGKTLSLICATMTWLRMNKADIFTRMETNIKTNEDDSENLSDDEPDWVIDTYRKSVLQEKVDLLNDYEKHLNEINTTSCKQLKTMCDLDKEHGRYKSVDPLRKKRKGARHLDVSLEEQDFIPRPYESDSENNDTSKSTRGGRISDKDYKLSELNSQIITLLDKIDGKVSRDPNNGDRFDVTNQNPVKIYYASRTYSQLGQFTSQLRLPSFPSSFRDKVPDEKVKYLPLASKKQLCINPKVMKWKTLEAINDACADLRHSKEGCIFYQNTNEWRHCPDTLALRDMIFSEIQDIEDLVPLGKSLGICPYYASREALPIAEVVTLPYQYLLSESTRSSLQINLENSIVIIDEAHNLIETINSIYSSQISLEDLKNCHKGIVTYFNKFKSRLNPGNRVNLLKLNSLLMTLIQFIVKNFKKIGQEI",no binding
5,"chl1-C170 (C-terminal domain of Chl1; domain IV) (domain or fragment, UniProt P22516 692-861) VRKIFYEAKDGDDILSGYSDSVAEGRGSLLLAIVGGKLSEGINFQDDLCRAVVMVGLPFPNIFSGELIVKRKHLAAKIMKSGGTEEEASRATKEFMENICMKAVNQSVGRAIRHANDYANIYLLDVRYNRPNFRKKLSRWVQDSINSEHTTHQVISSTRKFFSMRSLNSR",no binding

# Target: Hsp90 (endogenous, immunoprecipitated with anti-Hsp82 antibody) (S. cerevisiae (endogenous in yeast cells)) (UniProt P02829)
# Assay: co-IP; anti-Hsp82 antibody immunoprecipitates Hsp82 from extract of mid-logarithmic yeast cells; blot probed with anti-Myc for Chl1; controls: Δchl1 strain, preimmune sera / rabbit IgG
row,Binder,binding
1,"Chl1 with a C-terminal 13MYC tag at the chromosomal locus (protein, UniProt P22516 1-861) MDKKEYSETFYHPYKPYDIQVQLMETVYRVLSEGKKIAILESPTGTGKTLSLICATMTWLRMNKADIFTRMETNIKTNEDDSENLSDDEPDWVIDTYRKSVLQEKVDLLNDYEKHLNEINTTSCKQLKTMCDLDKEHGRYKSVDPLRKKRKGARHLDVSLEEQDFIPRPYESDSENNDTSKSTRGGRISDKDYKLSELNSQIITLLDKIDGKVSRDPNNGDRFDVTNQNPVKIYYASRTYSQLGQFTSQLRLPSFPSSFRDKVPDEKVKYLPLASKKQLCINPKVMKWKTLEAINDACADLRHSKEGCIFYQNTNEWRHCPDTLALRDMIFSEIQDIEDLVPLGKSLGICPYYASREALPIAEVVTLPYQYLLSESTRSSLQINLENSIVIIDEAHNLIETINSIYSSQISLEDLKNCHKGIVTYFNKFKSRLNPGNRVNLLKLNSLLMTLIQFIVKNFKKIGQEIDPNDMFTGSNIDTLNIHKLLRYIKVSKIAYKIDTYNQALKEEESSKNENPIKETHKKSVSSQPLLFKVSQFLYCLTNLTSEGQFFFEKNYSIKYMLLEPSKPFESILNQAKCVVLAGGTMEPMSEFLSNLLPEVPSEDITTLSCNHVIPKENLQTYITNQPELEFTFEKRMSPSLVNNHLFQFFVDLSKAVPKKGGIVAFFPSYQYLAHVIQCWKQNDRFATLNNVRKIFYEAKDGDDILSGYSDSVAEGRGSLLLAIVGGKLSEGINFQDDLCRAVVMVGLPFPNIFSGELIVKRKHLAAKIMKSGGTEEEASRATKEFMENICMKAVNQSVGRAIRHANDYANIYLLDVRYNRPNFRKKLSRWVQDSINSEHTTHQVISSTRKFFSMRSLNSR",binds

# From PMC5990887
